{"source": "patent US10407421B2", "about": "“Bicyclic aryl monobactam compounds and methods of use thereof for the treatment of bacterial infections” (priority 2016, dated 2019)", "format_in_all_cases": "cell-based", "details_in_all_cases": "in the presence of β lactamase inhibitor Relebactam 4 μg/mL; 22 hours at 35±2° C.; lowest concentration inhibiting 95% of growth (OD600)", "key": {"[1]": {"tested_on": "Acinetobacter baumannii expressing TEM-1, AmpC, and Oxa-24/40 (CL6188)", "assay": "Growth inhibitory concentration (OD600), Acinetobacter baumannii CL6188", "procedure": "(§1) Antibiotic Activity: Determination of Growth Inhibitory Concentration\n(§2) The concentrations of compounds required to inhibit the growth of various strains of bacteria were determined in an assay that assessed bacterial growth by measuring optical density at 600 nm (OD600). The bacterial strains tested included the clinical strains Escherichia coli expressing NDM-1 (CLB30016), Klebsiella pneumoniae expressing KPC-1 (CL6569), Acinetobacter baumannii expressing TEM-1, AmpC, and Oxa-24/40 (CL6188) and Pseudomonas aeruginosa expressing AmpC (CL5701). All compounds were tested in the presence of a β lactamase inhibitor (BLi, Relebactam) in 384-well microplates. The clinical strains were stored as frozen single use stocks, thawed and diluted into 1.1× cation-adjusted Mueller-Hinton II broth to achieve approximately 2×10^5 CFU/mL. Test compounds were dissolved in DMSO and diluted 1:50 in the assay, resulting in a final concentration range of 100 μM to 0.098 μM. On the day of the assay, 1 μL of test compound was added to the plate followed by 4 μL of 50 μg/mL BLi in MOPS buffer and 45 µL of diluted bacteria. Plates were centrifuged at 1000 rpm for 30 seconds, shaken at approximately 800 rpm for 1 minute, and incubated at 35±2° C. for 22 hours. The concentration of BLi used in the assay was 4 μg/mL. At the end of the incubation, absorbance at 600 nm was determined using a spectrophotometer. Inhibition was quantitated by identifying the lowest concentration of test compound that was required to inhibit 95% of the growth of the bacteria. The results for Examples 1-73 are reported in Table I, expressed as the concentration of compound that inhibited 95% of bacterial growth (Minimum Inhibitory Threshold Concentration; MITC95)."}, "[2]": {"tested_on": "Escherichia coli expressing NDM-1 (CLB30016)", "assay": "Growth inhibitory concentration (OD600), Escherichia coli CLB30016", "procedure": "as §1, §2"}, "[3]": {"tested_on": "Klebsiella pneumoniae expressing KPC-1 (CL6569)", "assay": "Growth inhibitory concentration (OD600), Klebsiella pneumoniae CL6569", "procedure": "as §1, §2"}, "[4]": {"tested_on": "Pseudomonas aeruginosa expressing AmpC (CL5701)", "assay": "Growth inhibitory concentration (OD600), Pseudomonas aeruginosa CL5701", "procedure": "as §1, §2"}}, "note": "At least one read-out could not be matched to a standard name with certainty.", "data": [{"smiles": "CC1(C)[C@H](NC(=O)/C(=N\\O[C@@H](COc2ccc3nc(NC4CNC4)ccc3c2)C(=O)O)c2csc(N)n2)C(=O)N1OS(=O)(=O)O", "note": "[Example 1, 3-((6-((S)-2-((((Z)-1-(2-aminothiazol-4-yl)-2-(((S)-2,2-dimethyl-4-oxo-1-(sulfooxy)azetidin-3-yl)amino)-2-oxoethylidene)amino)oxy)-2-carboxyethoxy)quinolin-2-yl)amino)azetidin-1-ium 2,2,2-trifluoroacetate]", "values": [{"measurement": "AB_CL6188 MITC95", "setting": "[1]", "result": 6.2, "unit": "µM"}, {"measurement": "EC_CLB30016 MITC95", "setting": "[2]", "result": 3.1, "unit": "µM"}, {"measurement": "KP_CL6569 MITC95", "setting": "[3]", "result": 0.39, "unit": "µM"}, {"measurement": "PA_CL5701 MITC95", "setting": "[4]", "result": 3.1, "unit": "µM"}]}, {"smiles": "CC1(C)[C@H](NC(=O)/C(=N\\O[C@@H](COc2ccc3nc(NCC4CNC4)ccc3c2)C(=O)O)c2csc(N)n2)C(=O)N1OS(=O)(=O)O", "note": "[Example 2, (S)-2-((((Z)-1-(2-aminothiazol-4-yl)-2-(((S)-2,2-dimethyl-4-oxo-1-(sulfooxy)azetidin-3-yl)amino)-2-oxoethylidene)amino)oxy)-3-((2-((azetidin-3-ylmethyl)amino)quinolin-6-yl)oxy)propanoic acid]", "values": [{"measurement": "AB_CL6188 MITC95", "setting": "[1]", "result": 3.1, "unit": "µM"}, {"measurement": "EC_CLB30016 MITC95", "setting": "[2]", "result": 3.1, "unit": "µM"}, {"measurement": "KP_CL6569 MITC95", "setting": "[3]", "result": 0.20, "unit": "µM"}, {"measurement": "PA_CL5701 MITC95", "setting": "[4]", "result": 3.1, "unit": "µM"}]}, {"smiles": "CC1(C)[C@H](NC(=O)/C(=N\\O[C@@H](COc2ccc3nc(NC4CCNCC4)ccc3c2)C(=O)O)c2csc(N)n2)C(=O)N1OS(=O)(=O)O", "note": "[Example 3, (S)-2-((((Z)-1-(2-aminothiazol-4-yl)-2-(((S)-2,2-dimethyl-4-oxo-1-(sulfooxy)azetidin-3-yl)amino)-2-oxoethylidene)amino)oxy)-3-((2-(piperidin-4-ylamino)quinolin-6-yl)oxy)propanoic acid]", "values": [{"measurement": "AB_CL6188 MITC95", "setting": "[1]", "result": 6.2, "unit": "µM"}, {"measurement": "EC_CLB30016 MITC95", "setting": "[2]", "result": 6.2, "unit": "µM"}, {"measurement": "KP_CL6569 MITC95", "setting": "[3]", "result": 0.39, "unit": "µM"}, {"measurement": "PA_CL5701 MITC95", "setting": "[4]", "result": 6.2, "unit": "µM"}]}, {"smiles": "CC1(C)[C@H](NC(=O)/C(=N\\O[C@@H](COc2ccc3nc(N[C@H]4CCNC4)ccc3c2)C(=O)O)c2csc(N)n2)C(=O)N1OS(=O)(=O)O.O=C(O)C(F)(F)F", "note": "[Example 4, (S)-3-((6-((S)-2-((((Z)-1-(2-aminothiazol-4-yl)-2-(((S)-2,2-dimethyl-4-oxo-1-(sulfooxy)azetidin-3-yl)amino)-2-oxoethylidene)amino)oxy)-2-carboxyethoxy)quinolin-2-yl)amino)pyrrolidin-1-ium 2,2,2-trifluoroacetate]", "values": [{"measurement": "AB_CL6188 MITC95", "setting": "[1]", "result": 25, "unit": "µM"}, {"measurement": "EC_CLB30016 MITC95", "setting": "[2]", "result": 6.2, "unit": "µM"}, {"measurement": "KP_CL6569 MITC95", "setting": "[3]", "result": 0.39, "unit": "µM"}, {"measurement": "PA_CL5701 MITC95", "setting": "[4]", "result": 6.2, "unit": "µM"}]}, {"smiles": "CC1(C)C(NC(=O)/C(=N\\O[C@@H](COc2ccc3nc(NC4CC(N)C4)ccc3c2)C(=O)O)c2csc(N)n2)C(=O)N1OS(=O)(=O)O", "note": "(stereo partly drawn) [Example 5, (S)-3-((2-(((1r,3S)-3-aminocyclobutyl)amino)quinolin-6-yl)oxy)-2-((((Z)-1-(2-aminothiazol-4-yl)-2-(((S)-2,2-dimethyl-4-oxo-1-(sulfooxy)azetidin-3-yl)amino)-2-oxoethylidene)amino)oxy)propanoic acid]", "values": [{"measurement": "AB_CL6188 MITC95", "setting": "[1]", "result": 12.5, "unit": "µM"}, {"measurement": "EC_CLB30016 MITC95", "setting": "[2]", "result": 3.1, "unit": "µM"}, {"measurement": "KP_CL6569 MITC95", "setting": "[3]", "result": 0.39, "unit": "µM"}, {"measurement": "PA_CL5701 MITC95", "setting": "[4]", "result": 3.1, "unit": "µM"}]}, {"smiles": "CC1(C)CC(Nc2ccc3cc(OC[C@H](O/N=C(\\C(=O)NC4C(=O)N(OS(=O)(=O)O)C4(C)C)c4csc(N)n4)C(=O)O)ccc3n2)CN1.O=C(O)C(F)(F)F", "note": "(stereo partly drawn) [Example 6, 4-((6-((S)-2-((((Z)-1-(2-aminothiazol-4-yl)-2-(((S)-2,2-dimethyl-4-oxo-1-(sufooxy)azetidin-3-yl)amino)-2-oxoethylidene)amino)oxy)-2-carboxyethoxy)quinolin-2-yl)amino)-2,2-dimethylpyrrolidin-1-ium 2,2,2-trifluoroacetate]", "values": [{"measurement": "AB_CL6188 MITC95", "setting": "[1]", "result": 50, "unit": "µM"}, {"measurement": "EC_CLB30016 MITC95", "setting": "[2]", "result": 12.5, "unit": "µM"}, {"measurement": "KP_CL6569 MITC95", "setting": "[3]", "result": 0.78, "unit": "µM"}, {"measurement": "PA_CL5701 MITC95", "setting": "[4]", "result": 12.5, "unit": "µM"}]}, {"smiles": "CC1(C)[C@H](NC(=O)/C(=N\\O[C@@H](COc2ccc3nc(N4CCNCC4)ccc3c2)C(=O)O)c2csc(N)n2)C(=O)N1OS(=O)(=O)O.O=C(O)C(F)(F)F", "note": "[Example 7, 4-(6-((S)-2-((((Z)-1-(2-aminothiazol-4-yl)-2-(((S)-2,2-dimethyl-4-oxo-1-(sulfooxy)azetidin-3-yl)amino)-2-oxoethylidene)amino)oxy)-2-carboxyethoxy)quinolin-2-yl)piperazin-1-ium 2,2,2-trifluoroacetate]", "values": [{"measurement": "AB_CL6188 MITC95", "setting": "[1]", "result": 25, "unit": "µM"}, {"measurement": "EC_CLB30016 MITC95", "setting": "[2]", "result": 6.2, "unit": "µM"}, {"measurement": "KP_CL6569 MITC95", "setting": "[3]", "result": 0.39, "unit": "µM"}, {"measurement": "PA_CL5701 MITC95", "setting": "[4]", "result": 6.2, "unit": "µM"}]}, {"smiles": "CC1(C)[C@H](NC(=O)/C(=N\\O[C@@H](COc2ccc3nc(NCCN)ccc3c2)C(=O)O)c2csc(N)n2)C(=O)N1OS(=O)(=O)O", "note": "[Example 8, (S)-3-((2-((2-aminoethyl)amino)quinolin-6-yl)oxy)-2-((((Z)-1-(2-aminothiazol-4-yl)-2-(((S)-2,2-dimethyl-4-oxo-1-(sulfooxy)azetidin-3-yl)amino)-2-oxoethylidene)amino)oxy)propanoic Acid]", "values": [{"measurement": "AB_CL6188 MITC95", "setting": "[1]", "result": 12.5, "unit": "µM"}, {"measurement": "EC_CLB30016 MITC95", "setting": "[2]", "result": 6.2, "unit": "µM"}, {"measurement": "KP_CL6569 MITC95", "setting": "[3]", "result": 0.39, "unit": "µM"}, {"measurement": "PA_CL5701 MITC95", "setting": "[4]", "result": 3.1, "unit": "µM"}]}, {"smiles": "CC1(C)[C@H](NC(=O)/C(=N\\O[C@@H](COc2ccc3nc(NCCCN)ccc3c2)C(=O)O)c2csc(N)n2)C(=O)N1OS(=O)(=O)O", "note": "[Example 9, (S)-3-((2-((3-aminopropyl)amino)quinolin-6-yl)oxy)-2-((((Z)-1-(2-aminothiazol-4-yl)-2-(((S)-2,2-dimethyl-4-oxo-1-(sulfooxy)azetidin-3-yl)amino)-2-oxoethylidene)amino)oxy)propanoic acid]", "values": [{"measurement": "AB_CL6188 MITC95", "setting": "[1]", "result": 12.5, "unit": "µM"}, {"measurement": "EC_CLB30016 MITC95", "setting": "[2]", "result": 6.2, "unit": "µM"}, {"measurement": "KP_CL6569 MITC95", "setting": "[3]", "result": 0.39, "unit": "µM"}, {"measurement": "PA_CL5701 MITC95", "setting": "[4]", "result": 6.2, "unit": "µM"}]}, {"smiles": "CNCCNc1ccc2cc(OC[C@H](O/N=C(\\C(=O)N[C@@H]3C(=O)N(OS(=O)(=O)O)C3(C)C)c3csc(N)n3)C(=O)O)ccc2n1", "note": "[Example 10, (S)-2-((((Z)-1-(2-aminothiazol-4-yl)-2-(((S)-2,2-dimethyl-4-oxo-1-(sulfooxy)azetidin-3-yl)amino)-2-oxoethylidene)amino)oxy)-3-((2-((2-(methylamino)ethyl)amino)quinolin-6-yl)oxy)propanoic acid]", "values": [{"measurement": "AB_CL6188 MITC95", "setting": "[1]", "result": 50, "unit": "µM"}, {"measurement": "EC_CLB30016 MITC95", "setting": "[2]", "result": 6.2, "unit": "µM"}, {"measurement": "KP_CL6569 MITC95", "setting": "[3]", "result": 0.78, "unit": "µM"}, {"measurement": "PA_CL5701 MITC95", "setting": "[4]", "result": 6.2, "unit": "µM"}]}, {"smiles": "CC1(C)[C@H](NC(=O)/C(=N\\O[C@@H](COc2ccc3c(NCCN)nccc3c2)C(=O)O)c2csc(N)n2)C(=O)N1OS(=O)(=O)O.O=C(O)C(F)(F)F", "note": "[Example 12, 2-((6-((S)-2-((((Z)-1-(2-aminothiazol-4-yl)-2-(((S)-2,2-dimethyl-4-oxo-1-(sulfooxy)azetidin-3-yl)amino)-2-oxoethylidene)amino)oxy)-2-carboxyethoxy)isoquinolin-1-yl)amino)ethan-1-aminium 2,2,2-trifluoroacetate]", "values": [{"measurement": "AB_CL6188 MITC95", "setting": "[1]", "result": 50, "unit": "µM"}, {"measurement": "EC_CLB30016 MITC95", "setting": "[2]", "result": 12.5, "unit": "µM"}, {"measurement": "KP_CL6569 MITC95", "setting": "[3]", "result": 0.78, "unit": "µM"}, {"measurement": "PA_CL5701 MITC95", "setting": "[4]", "result": 12.5, "unit": "µM"}]}, {"smiles": "CC1(C)[C@H](NC(=O)/C(=N\\O[C@@H](COc2ccc3c(NCC4CNC4)nccc3c2)C(=O)O)c2csc(N)n2)C(=O)N1OS(=O)(=O)O", "note": "[Example 13, (S)-2-((((Z)-1-(2-aminothiazol-4-yl)-2-(((S)-2,2-dimethyl-4-oxo-1-(sulfooxy)azetidin-3-yl)amino)-2-oxoethylidene)amino)oxy)-3-((1-((azetidin-3-ylmethyl)amino)isoquinolin-6-yl)oxy)propanoic acid]", "values": [{"measurement": "AB_CL6188 MITC95", "setting": "[1]", "result": 3.1, "unit": "µM"}, {"measurement": "EC_CLB30016 MITC95", "setting": "[2]", "result": 6.2, "unit": "µM"}, {"measurement": "KP_CL6569 MITC95", "setting": "[3]", "result": 0.39, "unit": "µM"}, {"measurement": "PA_CL5701 MITC95", "setting": "[4]", "result": 3.1, "unit": "µM"}]}]}
